Results: US20230086069A1 (SYSTIMMUNE, published 2023)

T1: human CD19 on cells (CD20+ B cells of human PBMC; Raji lymphoma cells) (human, UniProt P15391 20-556)
T1 sequence (looked up): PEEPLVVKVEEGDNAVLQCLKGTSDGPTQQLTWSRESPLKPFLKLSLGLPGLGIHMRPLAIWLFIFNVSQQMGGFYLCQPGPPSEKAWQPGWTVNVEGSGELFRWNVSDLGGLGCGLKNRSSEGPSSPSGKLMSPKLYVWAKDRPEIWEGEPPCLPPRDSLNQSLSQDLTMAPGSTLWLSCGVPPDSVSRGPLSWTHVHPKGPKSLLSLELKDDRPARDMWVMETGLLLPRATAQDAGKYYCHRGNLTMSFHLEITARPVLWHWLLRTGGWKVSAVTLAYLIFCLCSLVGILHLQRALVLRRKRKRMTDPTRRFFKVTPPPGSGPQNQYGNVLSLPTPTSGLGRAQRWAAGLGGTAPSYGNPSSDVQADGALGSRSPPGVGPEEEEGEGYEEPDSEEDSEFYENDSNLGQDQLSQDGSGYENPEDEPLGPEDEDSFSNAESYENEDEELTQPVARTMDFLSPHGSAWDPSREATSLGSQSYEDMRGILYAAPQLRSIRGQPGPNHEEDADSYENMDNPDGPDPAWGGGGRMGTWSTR

T2: His-tagged human CD19 (human, UniProt P15391 20-291, limits assumed)
T2 construct: not shown: His tag
T2 sequence (looked up): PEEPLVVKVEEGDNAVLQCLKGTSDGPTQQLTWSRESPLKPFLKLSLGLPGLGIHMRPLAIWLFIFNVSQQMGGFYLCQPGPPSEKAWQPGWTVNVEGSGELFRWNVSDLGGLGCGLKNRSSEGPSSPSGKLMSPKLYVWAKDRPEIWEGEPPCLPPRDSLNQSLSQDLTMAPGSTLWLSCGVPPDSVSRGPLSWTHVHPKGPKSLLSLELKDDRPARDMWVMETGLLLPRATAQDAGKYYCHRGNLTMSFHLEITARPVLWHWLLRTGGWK

B1: SI-55H11 (hexaGNC antibody, humanized CD19 binding domain H4 at D6) (other)
heavy: EIVLTQSPSTLSVSPGERATFSCRASQSIGTNIHWYQQKPGKPPRLLIKYASESISGIPDRFSGSGSGTEFTLTISSVQSEDFAVYYCQQNNNWPTTFGPGTKLTVLGGGGSGGGGSGGGGSGGGGSQVQLQQSGPGLVKPSETLSITCTVSGFSLTNYGVHWIRQAPGKGLEWLGVIWSGGNTDYNTPFTSRFTITKDNSKNQVYFKLRSVRADDTAIYYCARALTYYDYEFAYWGQGTLVTVSSGGGGSGGGGSGGGGSGGGGSEVQLVESGGGLVQPGGSLRLSCAASGFTISTNAMSWVRQAPGKCLEWIGVITGRDITYYASWAKGRFTISRDNSKNTLYLQMNSLRAEDTAVYYCARDGGSSAITSNNIWGQGTLVTVSSASTKGPSVFPLAPSSKSTSGGTAALGCLVKDYFPEPVTVSWNSGALTSGVHTFPAVLQSSGLYSLSSVVTVPSSSLGTQTYICNVNHKPSNTKVDKRV[omitted - human IgG1 Fc with changes]GGGGSGGGGSEVQLLESGGGLVQPGGSLRLSCAASGFSFSSGYDMCWVRQAPGKGLEWIACIAAGSAGITYDANWAKGRFTISRDNSKNTLYLQMNSLRAEDTAVYYCARSAFSFDYAMDLWGQGTLVTVSSGGGGSGGGGSGGGGSGGGGSDIQMTQSPSTLSASVGDRVTITCQASQSISSHLNWYQQKPGKAPKLLIYKASTLASGVPSRFSGSGSGTEFTLTISSLQPDDFATYYCQQGYSWGNVDNVFGGGTKVEIKGGGGSGGGGSGRSLVESGGGLVQPGGSLRLSCTASGFTISSYHMQWVRQAPGKGLEYIGTISSGGNVYYASSARGRFTISRPSSKNTVDLQMNSLRAEDTAVYYCARDSGYSDPMWGQGTLVTVSSGGGGSGGGGSGGGGSGGGGSDVVMTQSPSSVSASVGDRVTITCQASQNIRTYLSWYQQKPGKAPKLLIYAAANLASGVPSRFSGSGSGTDFTLTISDLEPGDAATYYCQSTYLGTDYVGGAFGGGTKVEIK
light: ENVLTQSPASLSASPGERVTITCSASSSVSYMHWYQQKPGQAPKLWIYDTSKLASGVPSRFSGSGSGNDHTLTISSMEPEDFATYYCFQGSVYPFTFGQGTKVTVLGGGGSGGGGSGGGGSGGGGSQVTLKESGPGLVQPGQTLSLTCAFSGFSLSTSGMGVGWIRQPPGKGLEWLAHIWWDDDKRYNPALKSRLTISKDTSKNQVYLQMNSLDAEDTAVYYCARMELWSYYFDYWGQGTLVTVSSGGGGSGGGGSDVVMTQSPSTLSASVGDRVTINCQASESISSWLAWYQQKPGKAPKLLIYEASKLASGVPSRFSGSGSGTEFTLTISSLQPDDFATYYCQGYFYFISRTYVNSFGCGTKVEIKRTVAAPSVFIFPPSDEQLKSGTASVVCLLNNFYPREAKVQWKVDNALQSGNSQESVTEQDSKDSTYSLSSTLTLSKADYEKHKVYACEVTHQGLSSPVTKSFNRGECGGGGSGGGGSGGGGSQSALTQPASVSGSPGQSITISCTGTSSDVGGYNFVSWYQQHPGKAPKLMIYDVSDRPSGVSDRFSGSKSGNTASLIISGLQADDEADYYCSSYGSSSTHVIFGGGTKVTVLGGGGSGGGGSGGGGSGGGGSQVQLQESGGGLVKPGGSLSLSCAASGFTFSSYWMSWVRQAPGKGLEWVANINRDGSASYYVDSVKGRFTISRDDAKNSLYLQMNSLRAEDTAVYYCARDRGVGYFDLWGRGTLVTVSS
B2: SI-38P12 (pentaGNC antibody, humanized CD19 binding domain H4 at D6) (other)
heavy: QIVLSQSPAILSASPGEKVTMTCRASSSVSYIHWFQQKPGSSPKPWIYATSNLASGVPVRFSGSGSGTSYSLTISRVEAEDAATYYCQQWTSNPPTFGGGTKLTVLGGGGSGGGGSGGGGSGGGGSQVQLQQPGAELVKPGASVKMSCKASGYTFTSYNMHWVKQTPGRGLEWIGAIYPGNGDTSYNQKFKGKATLTADKSSSTAYMQLSSLTSEDSAVYYCARSTYYGGDWYFNVWGAGTTVTVSSGGGGSGGGGSEVQLVESGGGLVQPGGSLRLSCAASGFTISTNAMSWVRQAPGKGLEWIGVITGRDITYYASWAKGRFTISRDNSKNTLYLQMNSLRAEDTAVYYCARDGGSSAITSNNIWGQGTLVTVSSASTKGPSVFPLAPSSKSTSGGTAALGCLVKDYFPEPVTVSWNSGALTSGVHTFPAVLQSSGLYSLSSVVTVPSSSLGTQTYICNVNHKPSNTKVDKRV[omitted - human IgG1 Fc with changes]GGGGSGGGGSEVQLLESGGGLVQPGGSLRLSCAASGFSFSSGYDMCWVRQAPGKGLEWIACIAAGSAGITYDANWAKGRFTISRDNSKNTLYLQMNSLRAEDTAVYYCARSAFSFDYAMDLWGQGTLVTVSSGGGGSGGGGSGGGGSGGGGSDIQMTQSPSTLSASVGDRVTITCQASQSISSHLNWYQQKPGKAPKLLIYKASTLASGVPSRFSGSGSGTEFTLTISSLQPDDFATYYCQQGYSWGNVDNVFGGGTKVEIKGGGGSGGGGSGRSLVESGGGLVQPGGSLRLSCTASGFTISSYHMQWVRQAPGKGLEYIGTISSGGNVYYASSARGRFTISRPSSKNTVDLQMNSLRAEDTAVYYCARDSGYSDPMWGQGTLVTVSSGGGGSGGGGSGGGGSGGGGSDVVMTQSPSSVSASVGDRVTITCQASQNIRTYLSWYQQKPGKAPKLLIYAAANLASGVPSRFSGSGSGTDFTLTISDLEPGDAATYYCQSTYLGTDYVGGAFGGGTKVEIK
light: ENVLTQSPASLSASPGERVTITCSASSSVSYMHWYQQKPGQAPKLWIYDTSKLASGVPSRFSGSGSGNDHTLTISSMEPEDFATYYCFQGSVYPFTFGQGTKVTVLGGGGSGGGGSGGGGSGGGGSQVTLKESGPGLVQPGQTLRLTCAFSGFSLSTSGMGVGWIRQPPGKGLEWLAHIWWDDDKRYNPALKSRLTISKDTSKNQVYLQMNSLDAEDTAVYYCARMELWSYYFDYWGQGTLVTVSSGGGGSGGGGSDVVMTQSPSTLSASVGDRVTINCQASESISSWLAWYQQKPGKAPKLLIYEASKLASGVPSRFSGSGSGTEFTLTISSLQPDDFATYYCQGYFYFISRTYVNSFGGGTKVEIKRTVAAPSVFIFPPSDEQLKSGTASVVCLLNNFYPREAKVQWKVDNALQSGNSQESVTEQDSKDSTYSLSSTLTLSKADYEKHKVYACEVTHQGLSSPVTKSFNRGEC

How the values were obtained:
[1] = molecular target: T1, human CD19 on cells (CD20+ B cells of …); experiment: cell-based or functional assay
His-tagged human CD19 = molecular target: T2, His-tagged human CD19; experiment: BLI (Octet), GNC antibody on AHC sensor, His-tagged human CD19 as analyte, 1:1 fit
Experimental: To determine the binding affinity of the hexa and pentaGNC antibodies to human CD19, the Octet binding assay was used. The GNC antibodies were loaded via AHC sensors at 10 ug/ml and bound to a serial dilution (1:2.5 dilutions starting from the highest concentration of 200 nM) or a single 100-nM concentration of His-tagged human CD19.

| Binder | EC50 (pM), re-directed T cell cytotoxicity: cytolysis of Raji cells by human CD8 T cells [1] [pM] | Kd (His-tagged human CD19) [nM] |
| --- | --- | --- |
| B1 | 2.5 | 4.54 |
| B2 |  | 1.11 |
